Laboratory results from the supplement of paper PMC11283458.
The list shows a part of the results. Single values are uncertain, as repeats are few or missing.

What was measured:
[1] = system: Mef2d microexon dual Nano/Firefly luciferase splicing reporter in Neuro-2a cells; assay: B-score of Firefly/Nano luminescence ratio, V1 Mef2d microexon reporter (B-score (plate-normalised)); higher = more Mef2d microexon inclusion; conditions: 24 h
[2] = system: Mef2d microexon dual Nano/Firefly luciferase splicing reporter in Neuro-2a cells; assay: B-score of Nano/Firefly luminescence ratio, V2 Mef2d microexon reporter (B-score (plate-normalised)); higher = more Mef2d microexon inclusion; conditions: 24 h
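For B-score of Nano/Firefly luminescence ratio, V2 Mef2d microexon reporter in this document: compounds at 4 µM (PKI library 0.5 µM) on Dox-inducible N2A Flp-In cells with PEST-tagged luciferases, 384-well plates, B-score from per-plate median-polish residual over median absolute residual.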

| Compound | B-score [1] | B-score [2] |
| --- | --- | --- |
| Cc1cc(NC(=O)Nc2cc(Cl)cc(Cl)c2)on1 (4 µM) | 1.35 | 9.2 |
| COC(=O)c1sc(S(C)(=O)=O)c(C#N)c1-c1cccs1 (4 µM) | 8.77 | 1.54 |
| N#CCSc1nsc(SCC#N)c1C#N (4 µM) | -3.54 | -4.55 |
| NC(CSc1ccc(Cl)cc1)=NOC(=O)c1ccc(C(F)(F)F)cc1 (4 µM) | 0.759 | 23.6 |
| CN(C)C=C1SC(=O)N(c2ccccc2)C1=O (4 µM) | 3.85 | 2.63 |
| Cc1cc(Nc2nc(N[C@@H](C)c3ncc(F)cn3)ncc2Cl)[nH]n1 (0.5 µM) | 14.7 | 10.5 |
| CC(C)(C)c1ccc(N2CC(C(=O)O)CC2=O)cc1 (stereo not drawn) (4 µM) | 1.35 | 19.7 |
| CN1c2cc3c(cc2N=C(c2ccc(C(=O)O)cc2)c2ccccc21)C(C)(C)CCC3(C)C (4 µM) | 5.97 | 2.55 |
| CSc1sc(C(=O)Nc2cccc(C(F)(F)F)c2)c2c1S(=O)(=O)N(C)c1ccccc1-2 (4 µM) | 3.67 | 3.88 |
| CCOC(=O)c1cnn2c1nc(N1CCCC1)c1ccccc12 (4 µM) | 4.52 | 0.538 |
| Cc1c(C(=O)NN2CCOCC2)nn(-c2ccc(Cl)cc2Cl)c1-c1ccc(I)cc1 (4 µM) | 8.99 | 16 |
| COc1cccc(C=C(C#N)C(=O)c2ccc(C(C)(C)C)cc2)c1O (4 µM) | 8.43 | 1.83 |
| Cc1cc(=O)oc2cc(NS(=O)(=O)c3ccc4c(c3)CCO4)ccc12 (4 µM) | -0.278 | 13.2 |
| CC(C)(C)c1ccc(Oc2ccc(NC(=O)c3ccco3)cn2)cc1 (4 µM) | 7.08 | 17.9 |
